Measurements as given in publication PMC4336329 (PLoS ONE, 2015).
The campaign covered roughly 310,000 compounds. About 14,000 (4.5%) showed an effect of 50% or more. The effect is printed as a negative number. This is one part of the list.

target: human ether-à-go-go-related gene (hERG) potassium channel (human, UniProt Q12809); assay: primary screen, population patch clamp on CHO cells stably expressing hERG
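Note: peak tail current of the secondary pulse compared with the same well before compound.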

Sequence of human ether-à-go-go-related gene (hERG) potassium channel (Q12809 whole entry, looked up): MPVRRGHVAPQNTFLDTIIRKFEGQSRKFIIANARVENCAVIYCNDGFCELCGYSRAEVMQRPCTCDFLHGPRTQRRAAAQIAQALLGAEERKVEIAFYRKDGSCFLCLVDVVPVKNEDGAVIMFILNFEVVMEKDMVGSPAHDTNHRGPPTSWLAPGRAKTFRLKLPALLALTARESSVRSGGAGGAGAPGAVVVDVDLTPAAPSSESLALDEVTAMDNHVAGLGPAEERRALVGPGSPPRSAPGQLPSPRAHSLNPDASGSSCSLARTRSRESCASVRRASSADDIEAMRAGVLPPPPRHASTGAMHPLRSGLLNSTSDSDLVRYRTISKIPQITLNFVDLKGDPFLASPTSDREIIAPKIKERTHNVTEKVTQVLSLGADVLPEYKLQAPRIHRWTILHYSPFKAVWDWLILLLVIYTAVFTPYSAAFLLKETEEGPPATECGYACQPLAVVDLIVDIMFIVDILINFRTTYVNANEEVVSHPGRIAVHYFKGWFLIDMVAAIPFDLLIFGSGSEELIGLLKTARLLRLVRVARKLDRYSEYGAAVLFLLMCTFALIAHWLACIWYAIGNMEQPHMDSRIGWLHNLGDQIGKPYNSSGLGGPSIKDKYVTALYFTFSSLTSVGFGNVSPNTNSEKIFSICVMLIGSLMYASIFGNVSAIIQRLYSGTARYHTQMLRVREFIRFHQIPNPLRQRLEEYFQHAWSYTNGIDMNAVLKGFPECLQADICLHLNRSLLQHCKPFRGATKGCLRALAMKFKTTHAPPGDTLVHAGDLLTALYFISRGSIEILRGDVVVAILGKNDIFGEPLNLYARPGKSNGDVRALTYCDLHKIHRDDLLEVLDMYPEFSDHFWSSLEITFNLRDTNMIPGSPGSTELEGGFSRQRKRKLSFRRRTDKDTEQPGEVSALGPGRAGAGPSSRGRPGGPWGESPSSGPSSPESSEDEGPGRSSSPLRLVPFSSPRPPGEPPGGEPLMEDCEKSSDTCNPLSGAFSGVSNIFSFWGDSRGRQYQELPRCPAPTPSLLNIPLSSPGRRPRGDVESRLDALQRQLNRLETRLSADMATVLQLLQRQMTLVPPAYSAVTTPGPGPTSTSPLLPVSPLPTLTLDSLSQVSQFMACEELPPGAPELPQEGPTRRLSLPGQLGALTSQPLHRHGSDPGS

Structure (SMILES) | hERG current change (%, negative = inhibition) at 10uM [%]
Cc1cc(C)cc(N(C(=O)CCC(=O)Nc2cc(C)on2)C(C(=O)NC2CCCC2)c2ccco2)c1 (stereo not shown) | 0.426
CC1(CCBr)C(=O)N(c2ccccc2)c2ccccc21 (stereo not shown) | 14.6
Cc1nnc(N2CCCC(C(=O)Nc3cc(F)ccc3F)C2)c2nn(-c3ccccc3)c(C)c12 (stereo not shown) | 22.9
COCCNC(=O)CCCC(=O)NCCOC | 13.9
Cc1ccc(N=Cc2c(O)n(-c3nccs3)c(=O)c3ccccc23)cc1 | 7.31
O=C(CNC(=O)/C=C/c1ccco1)N=Nc1c(O)[nH]c2ccccc12 | 12
CCNC(=O)CSc1nc2ccccc2c(=O)n1CCCOC(C)C | -11.1
CC1CCN(S(=O)(=O)c2ccc(NC(=O)CN3CCCCCC3)cc2)CC1 | -31.2
CC(C(=O)NCc1cccs1)n1cccc1 (stereo not shown) | 7.58
COc1ccc(C2(C(=O)Nc3ccc(S(N)(=O)=O)cc3)CCCC2)cc1 | -15.5
CCCCNC(=O)c1c(CSc2ccc(Cl)cc2)noc1C(=O)NCCC | 0.328
Cc1cc(C)nc(SCc2cc(=O)c(OC(=O)c3ccc(S(=O)(=O)N(C)C)cc3)co2)n1 | -45.6
O=C(O)CCCN1C(=O)c2ccccc2Sc2ncccc21 | 19
Cc1ccc(C(C(=O)NC2CCCC2)N(C(=O)CCC(=O)Nc2cc(C)on2)c2ccccc2)cc1 (stereo not shown) | 2.26
CCOC(=O)C1=C(C)N=C2SCCC(=O)N2C1c1cc(Br)ccc1OC (stereo not shown) | 9.58
CCCCn1c(N)c(N(CC)C(=O)C(c2ccccc2)c2ccccc2)c(=O)[nH]c1=O | 14.1
CC(C)c1ccc(C2=C(O)c3ccccc3C(=O)C2=O)cc1 | -38.2
Cc1nc(C(F)(F)F)ccc1C(=O)Nc1ccc2ccccc2n1 | 11.3
CCN(CC)C(=O)COC(=O)C1CCN(S(=O)(=O)c2ccc3c(c2)OCCO3)CC1 | -6.08
CC(=O)NS(=O)(=O)c1ccc2c(c1)C(=O)c1cc(S(=O)(=O)NC(C)=O)ccc1-2 | 21.1
COc1ccc(CNS(=O)(=O)c2cc(CN3C(=O)c4cccnc4C3=O)ccc2OC)cc1 | 12.4
Cc1cccc(CNc2ncnc3ccc(-c4ccc5c(c4)OCCO5)cc23)c1 | -19.8
Oc1ccccc1/C=N/Nc1ccnc(SCc2ccccc2)n1 | 10.7

Structure (SMILES) | hERG current change (%, negative = inhibition) at 10uM [%]
CCOC(=O)C1CCN(Cc2coc3ccc(Cl)cc3c2=O)CC1 | -33.6
Cc1ccc2[nH]c3c(c2c1)CCCC3NCCO.Cl (stereo not shown) | -12.1
COC(=O)c1scc(C)c1NC(=O)/C=C/C(=O)O | 14.7
Cc1ccc(S(=O)(=O)N2CCC(C(=O)N[C@H](C(=O)NCC3CCCO3)C(C)C)CC2)cc1 (stereo partly shown) | -5.89
N#Cc1c(Nc2ccc(F)cc2)sc(C(=O)c2ccccc2)c1N | -3.96
O=S(=O)(c1ccccc1)N(CC(O)CN1CCOCC1)c1ccccc1 (stereo not shown) | 18.6
CCOC(=O)c1c(C)n(C)c2ccc(OCC(O)CNCCc3ccccc3)cc12 (stereo not shown) | -28.2
Cc1ccsc1CN1CCN(c2ccccn2)CC1 | -8.77
Cc1ccc(S(=O)(=O)N2CCOC23CCN(S(=O)(=O)c2cccs2)CC3)cc1 | -2.85
COc1ccc(S(=O)(=O)N2CCC(C(=O)NCCOc3ccccc3F)CC2)cc1OC | 0.0976
COc1ccc(Cl)cc1NC(=S)NNC(=O)c1cccnc1 | 36.9
CCc1cc(C(=O)Cc2cnn(-c3ccccc3)c2)c(O)cc1O | -5.4
CCS(=O)(=O)c1ccc(O)c(NC(=O)COc2ccc(Cl)cc2)c1 | -19.5
COc1ccc(-c2cc(C(=O)N3CCCCC3)c3ccccc3n2)cc1 | -6.49
O=C(O)CCCC(=O)NCc1ccccn1 | 11.1
O=C(O)CSCCc1ccccn1 | 12.2
Nc1nnc(SCC(=O)NC23CC4CC(CC(C4)C2)C3)s1 | -7.89
O=C(Cn1nnc(-c2ccccc2NC(=O)c2ccco2)n1)NC1CCCCC1 | 0.336
COc1ccc(-c2n[nH]c(C)c2-c2cnn(-c3ccccc3)c2)c(O)c1 | -21.2
O=C1OC(=O)C2C3CCC(O3)C12 (stereo not shown) | 9.87
Cc1cccc(/C=N/NC(=O)c2cc(C)nc3ccccc23)n1 | 9.57
CCCn1c(=O)c(C(=O)c2ccccc2)nc2ccccc21 | -27.4
CC(=O)Nc1ccc(/C=N/Nc2nncc3ccccc23)cc1 | 14.6

Structure (SMILES) | hERG current change (%, negative = inhibition) at 10uM [%]
CCCSCCCNC(=O)Cn1nc(CC)n2c(cc3c(OC)cccc32)c1=O | 11.9
CNC(=O)NC(=S)NC(=O)c1cccc(Cl)c1 | 29.8
CN1CCN(C(=O)c2ccccc2-c2nc(-c3ccccc3)no2)CC1 | -25.5
CCCCC1CCCC12NC(=O)NC2=O (stereo not shown) | 2.73
CCC(C)NC(=O)c1cnn2c(C)c3c(nc12)CCCC3 (stereo not shown) | -12.4
CCC(=O)NC(=S)NNC(=O)c1ccc([N+](=O)[O-])cc1 | 13.4
Cc1c(O)ccc2c3c(c(=O)oc12)CCC(C)C3 (stereo not shown) | 17.6
CN(Cc1ccccc1)C(=O)CCCn1c(=O)[nH]c2cc(Cl)ccc2c1=O | -9.52
FC(F)(F)c1ccccc1NC(=S)N1CCCC1 | 9.42
CCC(=O)Nc1nnc(-c2ccco2)o1 | 8.23
Cc1ccc2[nH]c(=O)c(CN(Cc3ccco3)S(=O)(=O)c3c(C)ccc4nsnc34)cc2c1 | 12.6
CCc1ccc(OCC(=O)Nc2ccc(CN3CCCCC3)cc2)cc1 | -18
C[C@H]1OC[C@@H](C[N+](C)(C)C)O1.[I-] | 6.77
COC(=O)Nc1nn(-c2ccc(C)cc2)c(=O)c(C#N)c1C | 11.2
Cc1ccc(S(=O)(=O)NCCOc2nc(N(C)C)nc(N(C)C)n2)cc1 | -5.54
Cc1cc(-c2ccccc2)nc2cc(C(=O)NCc3ccco3)nn12 | -55.9
Cc1cc(NC(=O)Cn2cnc3c(nnn3-c3cccc(F)c3)c2=O)no1 | 5.01
Cc1ccc(Cl)cc1NC(=O)C1CCCN1S(=O)(=O)c1ccc(-c2ccc(=O)[nH]n2)s1 (stereo not shown) | -65.4
O=C(c1cccc(NS(=O)(=O)c2ccc(F)cc2)c1)N1CCN(c2ccccc2)CC1 | -22.7
Cc1nc2sc(C(c3ccc(F)cc3)N3CCOCC3)c(O)n2n1 (stereo not shown) | 9.62
Cl.N=c1ccn(Cc2cccc(F)c2)cc1 | 16.4
CN(C)CC#CCC(O)(c1ccccc1)C1CCCCC1 (stereo not shown) | 3.32
Cc1cccc(COc2coc(CN3CCN(C(=O)c4ccco4)CC3)cc2=O)c1 | -50.7

Structure (SMILES) | hERG current change (%, negative = inhibition) at 10uM [%]
O=C(Cc1ccc(S(=O)(=O)N2CCOCC2)s1)NCCC(c1ccccc1)c1ccccc1 | -54.8
CC(C)CC(=O)Nc1nnc(SCC(=O)NCC2CCCO2)s1 (stereo not shown) | 0.385
CNC(=O)c1ccc(NC(=O)CC23CC4CC(CC(C4)C2)C3)cc1 | 17.9
COCC(=O)Nc1cc(OC)c(Cl)cc1OC | -1.61
CCOc1ccc(N(C(C)C(=O)N2CCCC2)S(C)(=O)=O)cc1 (stereo not shown) | 17.5
CSc1nc2nccc(-c3ccc(-c4ccccc4)cc3)n2n1 | 8.18
Cc1ccc(N2C(=O)C3C4C=CC(CNC(=S)Nc5ccc(F)cc5)(O4)C3C2=O)cc1 (stereo not shown) | -13
CCc1ccc(NC(=O)CSc2nc(=O)n3cc(C)ccc3n2)cc1 | -24.6
O=C(NCCc1ccc(Cl)cc1)c1cc2ccccn2n1 | -4.22
COc1cccc(CNC(=O)Cn2ncc3c(=O)oc4ccccc4c32)c1 | 0.961
COC(=O)C(C)Sc1nc2c(cnn2-c2ccc(C)cc2)c(=O)[nH]1 (stereo not shown) | 3.83
CCOC(=O)c1c(NC(=O)c2ccccc2Cl)sc2c1CCc1ccccc1-2 | 35.3
COc1ccc(-c2[nH]ncc2CN(C)Cc2cnccn2)c(OC)c1 | 14
CCN(CC)CC(=O)Nc1c(C)cccc1C.Cl.O | -9.9
CCCCn1c2ccccc2c2cc(CC(N)=O)ccc21 | 0.491
Cc1ccc(Cl)cc1NC(=O)COC(=O)C1CCCC1 | -75.8
COc1ccc2cc(C3CC(c4ccco4)=NN3S(C)(=O)=O)c(Cl)nc2c1 (stereo not shown) | -48
O=C(Nc1ccc([N+](=O)[O-])cn1)c1cccnc1 | 9.39
Cc1c(C(C)(C)O)[nH]c2ccc(C(F)(F)F)cc12 | -10.9
O=C(NCc1cccnc1)c1cccnc1Sc1ccc(Cl)cc1 | -24.6
N#CC1(NC(=O)COC(=O)c2cc([N+](=O)[O-])ccc2N2CCCC2)CCCCC1 | -29.8
Cn1c(=O)c2[nH]c(CCCC(=O)O)nc2n(Cc2ccccc2)c1=S | 16.1
